In US20190330338A1 (published 2019):
Like-named read-outs stand apart in the source and are kept apart here.

Legend:
[1] = target: T1, recombinant CD229 (human, UniProt Q9HBG7 48-454); experiment: SPR
T1 chain: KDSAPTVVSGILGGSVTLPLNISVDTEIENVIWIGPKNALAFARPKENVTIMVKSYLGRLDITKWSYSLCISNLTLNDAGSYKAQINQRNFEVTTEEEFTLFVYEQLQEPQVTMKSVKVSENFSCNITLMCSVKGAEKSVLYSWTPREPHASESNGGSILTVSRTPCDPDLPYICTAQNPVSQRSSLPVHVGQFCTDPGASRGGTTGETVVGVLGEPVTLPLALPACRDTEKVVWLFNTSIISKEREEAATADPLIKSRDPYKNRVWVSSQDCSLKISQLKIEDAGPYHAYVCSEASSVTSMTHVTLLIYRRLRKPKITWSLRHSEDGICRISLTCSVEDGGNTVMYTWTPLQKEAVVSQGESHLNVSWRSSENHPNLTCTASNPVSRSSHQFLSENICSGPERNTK

[2] = target: T1, recombinant CD229; experiment: SPR

B1: anti-CD229 antibody clone 2D3 expressed as scFv-Fc (Fc fusion)
chain: QVQLVESGGGLVQPGRSLRLSCAASGFTFDDYAMHWVRQAPGKGLEWVSGISWNSGSIGYADSAKGRFTISRDNSKNTLYLQMNSLRAEDTAVYYCAKRGNSNSFDYWGQGTLVTVSSLEGGGGSGGGGSGGGAS[about 100 residues left out here]
Kd [1]: 22.9 nM
Kd [2]: 22.9 nM
